# According to the supplement of paper PMC9135407:
# Where “and” joins values, the source holds several entries; their conditions need not be identical. Identical values can stand only once. Counter-ions that a name gives are not always drawn. Out of some 5,800 compounds screened, about 620 (11%) showed activity.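 Rule for the calls: active = score above a cut-off or among the top three wells of a plate; in these data no inactive exceeds 0.85.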 The entries are a selection whose mix differs from that of the whole data set.
# Tested on: primary human hepatic stellate cells (donor 1)
# Experiment: scaled lipid accumulation score (0 = DMSO-like, 1 = nortriptyline-like); higher = stronger HSC inactivation (lipid re-accumulation), active = hit call of the paper
# Conditions: 48 h
# Experimental: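 Primary lipid accumulation screen in primary human hepatic stellate cell myofibroblasts (donor 1, passage 8) in 384-well plates. 100 nL of library compound was pin-transferred into 30 µL medium in duplicate, and cells were treated for 48 h. The 'Scaled' score combines distance from plate baseline, toxicity and reproducibility penalties, and is normalised to nortriptyline (positive) and DMSO (negative) controls on each plate. A hit is defined as scaled >0.85 or among the top 3 wells per plate.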
# [1] = library stock concentration: 10 mM
# [2] = library stock concentration: 1 mM
# [3] = library stock concentration: 3.33 mM
smiles,measurement,setting,value
COC[C@H]1OC(=O)c2coc3c2[C@@]1(C)C1=C(C3=O)C2CCC(=O)[C@@]2(C)C[C@H]1OC(C)=O (stereo partly specified) [Wortmannin from Penicillium funiculosum],scaled lipid accumulation score,[1],inactive: ≤ 0
CCCCC1(C2CCCC2)Cc2cc(OCCCC(=O)O)c(Cl)c(Cl)c2C1=O (stereo unspecified),scaled lipid accumulation score,[1],inactive: 0.086
"Cl.Clc1ccc(N2CCN(Cc3c[nH]c4ncccc34)CC2)cc1 [L-745,870 hydrochloride]",scaled lipid accumulation score,[1],active: 0.902
CC1=CCCC2C1(C)CCC(C)C2(C)CC/C(C)=C/Cn1c[n+](C)c2c(N)ncnc21 (stereo unspecified) [Agelasine (stereochemistry of diterpene unknown)],scaled lipid accumulation score,[1],inactive: 0.317
CC(C)C[C@H]1C(=O)N2CCC[C@H]2[C@]2(O)O[C@](NC(=O)[C@@H]3C=C4c5cccc6[nH]cc(c56)C[C@H]4N(C)C3)(C(C)C)C(=O)N12 [Ergocryptine-alpha],scaled lipid accumulation score,,inactive: ≤ 0
Cl.Oc1ccc2c3c1O[C@H]1c4[nH]c5ccccc5c4C[C@@]4(O)C(C2)N(CC2CC2)CC[C@]314 [Naltrindole hydrochloride],scaled lipid accumulation score,[1],active: 1.33
Cl.Cl.Fc1ccc(C(OCCN2CCN(CCCc3ccccc3)CC2)c2ccc(F)cc2)cc1,scaled lipid accumulation score,[1],active: 0.942
O=C1C2CCN(CC2)C1(CO)CO,scaled lipid accumulation score,library stock concentration: 27 mM,active: 0.911
NCC1(CC(=O)O)CCCCC1 [Gabapentin],scaled lipid accumulation score,,inactive: ≤ 0
same,scaled lipid accumulation score,[2],inactive: 0.002
same,scaled lipid accumulation score,[1],inactive: 0.292 and inactive: ≤ -0.027
O=c1cccc2n1C[C@@H]1CNC[C@H]2C1 [Cytisine],scaled lipid accumulation score,[3],inactive: ≤ 0
same,scaled lipid accumulation score,[1],inactive: ≤ 0 and inactive: ≤ -0.019
O=c1cccc2n1C[C@@H]1CNC[C@H]2C1 [(-)-Cytisine],scaled lipid accumulation score,[1],inactive: 0.005
O=c1cccc2n1C[C@@H]1CNC[C@H]2C1 [Cytisine (-)],scaled lipid accumulation score,,inactive: ≤ 0
CC[C@@H](C)C(=O)O[C@H]1[C@H](O)[C@H]2[C@@H](CN3C[C@@H](C)CC[C@H]3[C@@]2(C)O)[C@@H]2C[C@]34O[C@]5(O)[C@@H](OC(=O)[C@@](C)(O)CC)CC[C@@]3(C)[C@@H]5[C@@H](OC(C)=O)[C@@H](OC(C)=O)[C@H]4[C@@]21O [Protoveratrine A],scaled lipid accumulation score,,inactive: ≤ 0
CC[C@@H](C)C(=O)O[C@H]1[C@H](O)[C@H]2[C@@H](CN3C[C@@H](C)CC[C@H]3[C@@]2(C)O)[C@@H]2C[C@]34O[C@]5(O)[C@@H](OC(=O)[C@@](C)(O)CC)CC[C@@]3(C)[C@@H]5[C@@H](OC(C)=O)[C@@H](OC(C)=O)[C@H]4[C@@]21O [Protoveratrine a],scaled lipid accumulation score,[1],inactive: ≤ 0
NC(CCP(=O)(O)O)C(=O)O (stereo unspecified) [(?)-2-Amino-4-phosphonobutyric acid],scaled lipid accumulation score,[1],inactive: ≤ 0
COc1ccc2c(c1O)-c1cccc3c1[C@@H](C2)N(C)CC3 [R(-)-Apocodeine hydrochloride],scaled lipid accumulation score,[1],inactive: 0.627
CCNC(=O)C1OC(n2cnc3c(N)ncnc32)C(O)C1O (stereo unspecified) [5'-N-Ethylcarboxamidoadenosine (NECA)],scaled lipid accumulation score,library stock concentration: 16.2 mM,inactive: ≤ -0.021
"C[N+]1(C)CCc2cc3c(cc2[C@H]1[C@@H]1OC(=O)c2c1ccc1c2OCO1)OCO3 [(-)-Bicuculline methbromide, 1(S), 9(R)]",scaled lipid accumulation score,[1],inactive: 0.055
C[N+]1(C)CCc2cc3c(cc2[C@H]1[C@@H]1OC(=O)c2c1ccc1c2OCO1)OCO3 [(-)-Bicuculline methiodide],scaled lipid accumulation score,[1],inactive: 0.08
C[N+]1(C)CCc2cc3c(cc2[C@H]1[C@@H]1OC(=O)c2c1ccc1c2OCO1)OCO3 [(-)-Bicuculline methochloride],scaled lipid accumulation score,[1],inactive: ≤ 0
O=c1[nH]oc2c1CCNC2 [THIP hydrochloride],scaled lipid accumulation score,[1],inactive: ≤ 0
O=c1[nH]oc2c1CCNC2 [THIP Hydrochloride],scaled lipid accumulation score,,inactive: ≤ 0
C[C@H](N)C(=O)N[C@@H](C)C(=O)N[C@@H](Cc1ccccc1)C(=O)CCl,scaled lipid accumulation score,library stock concentration: 14.7 mM,inactive: 0.708
CCCCC/C=C\C/C=C\C/C=C\C/C=C\CCCC(=O)OCCN [O-Arachidonoyl Ethanolamine (hydrochloride)],scaled lipid accumulation score,[2],inactive: 0.049
O=C(O)/C=C\C(=O)O.O=C1/C(=C/c2ccccc2)C[C@@]2(O)C3Cc4ccc(O)c5c4[C@@]2(CCN3CC2CC2)[C@H]1O5 [BNTX maleate],scaled lipid accumulation score,[1],active: 0.851
c1cncc([C@@H]2CCCCN2)c1 [Anabasine],scaled lipid accumulation score,,inactive: ≤ 0
COc1cc(C(O)CN)ccc1O (stereo unspecified),scaled lipid accumulation score,[1],inactive: ≤ -0.055
CC(=O)O[C@H]1C(=O)[C@@]2(C)[C@H]([C@H](OC(=O)c3ccccc3)[C@]3(O)C[C@H](O)C(C)=C1C3(C)C)[C@]1(OC(C)=O)CO[C@@H]1C[C@@H]2O [Baccatin iii],scaled lipid accumulation score,[1],inactive: ≤ 0
CC(C)(O)[C@@H]1[C@H]2OC(=O)[C@@H]1[C@]1(O)C[C@H]3O[C@]34C(=O)O[C@H]2[C@]14C [Picrotin],scaled lipid accumulation score,[1],inactive: 0.167
C[C@@H]1C[C@@H]([C@H](O)CC2CC(=O)NC(=O)C2)C(=O)[C@@H](C)C1 [Cycloheximide],scaled lipid accumulation score,,inactive: 0.724
same,scaled lipid accumulation score,library stock concentration: 7.1 mM,inactive: 0.685
same,scaled lipid accumulation score,[1],inactive: 0.767
same,scaled lipid accumulation score,library stock concentration: 17.8 mM,inactive: 0.647
"CCCCC/C=C\CC1OC1CCCCCCCC(=O)O (stereo unspecified) [Leukotoxin A (9,10-EODE)]",scaled lipid accumulation score,library stock concentration: 100 uM,inactive: 0.026
O=C(O)c1nn(Cc2ccc(Cl)cc2Cl)c2ccccc12 [Lonidamine],scaled lipid accumulation score,[3],inactive: ≤ 0
same,scaled lipid accumulation score,[1],inactive: ≤ 0 and inactive: 0.005 and inactive: ≤ -0.006
"COc1ccc2c(c1OC)C(=O)O[C@@H]2[C@H]1c2cc3c(cc2CCN1C)OCO3 [Hydrastine (1r, 9s)]",scaled lipid accumulation score,library stock concentration: 5.2 mM,inactive: ≤ 0
COc1ccc2c(c1OC)C(=O)O[C@@H]2[C@H]1c2cc3c(cc2CCN1C)OCO3 [Hydrastine hydrochloride],scaled lipid accumulation score,,inactive: 0.118
Cc1cc(C(C#N)c2ccc(Cl)cc2)c(Cl)cc1NC(=O)c1cc(I)cc(I)c1O (stereo unspecified) [Closantel],scaled lipid accumulation score,library stock concentration: 3 mM,inactive: ≤ 0
same,scaled lipid accumulation score,[3],inactive: ≤ 0
same,scaled lipid accumulation score,[1],inactive: ≤ -0.001
CC(C)(C)c1cc(C=C(C#N)C#N)cc(C(C)(C)C)c1O [Tyrphostin A9],scaled lipid accumulation score,[1],inactive: 0.728
CC(C)(C)c1cc(C=C(C#N)C#N)cc(C(C)(C)C)c1O [Tyrphostin 9],scaled lipid accumulation score,[3],inactive: 0.175
same,scaled lipid accumulation score,library stock concentration: 17.7 mM,inactive: 0.752
O=C(O)C(Cl)Cl,scaled lipid accumulation score,[1],inactive: ≤ 0
CCCCOC(=O)c1ccccc1C(=O)OCCCC [Dibutyl phthalate],scaled lipid accumulation score,library stock concentration: 7.2 mM,inactive: 0.017
CCOC(=O)c1ncn2c1[C@@H]1CCCN1C(=O)c1cc(OC)ccc1-2,scaled lipid accumulation score,[1],inactive: ≤ -0.041 and inactive: 0.027
CC[C@@H](CO)NC(=O)[C@@H]1C=C2c3cccc4[nH]cc(c34)C[C@H]2N(C)C1 [Methylergometrine maleate],scaled lipid accumulation score,,inactive: ≤ 0
same,scaled lipid accumulation score,[1],inactive: ≤ 0
CC[C@@H](CO)NC(=O)[C@@H]1C=C2c3cccc4[nH]cc(c34)C[C@H]2N(C)C1 [Methylergonovine maleate],scaled lipid accumulation score,library stock concentration: 4.4 mM,inactive: ≤ -0.001
same,scaled lipid accumulation score,[1],inactive: ≤ 0 and inactive: 0.136
CCC1(C2=NCCN2)Cc2ccccc2O1 (stereo unspecified) [Efaroxan],scaled lipid accumulation score,library stock concentration: 9.2 mM,inactive: 0.018
CCC1(C2=NCCN2)Cc2ccccc2O1 (stereo unspecified) [Efaroxan hydrochloride],scaled lipid accumulation score,[1],inactive: 0.514 and inactive: ≤ 0
"COc1ccc2c(c1OC)C(=O)O[C@H]2[C@H]1c2cc3c(cc2CCN1C)OCO3 [1r,9s-hydrastine]",scaled lipid accumulation score,[1],inactive: ≤ 0
CN(C)c1ccc(/C=C2\CCCN=C2c2cccnc2)cc1 [DMAB-anabaseine dihydrochloride],scaled lipid accumulation score,[1],inactive: 0.17
CN(C)C(=S)SSC(=S)N(C)C [Thiram],scaled lipid accumulation score,library stock concentration: 8.3 mM,active: 0.965
C=C1[C@@H](C)[C@H]2[C@H](Cc3ccccc3)NC(=O)C23[C@H](OC(C)=O)/C=C/[C@](C)(O)C(=O)[C@@H](C)C/C=C/[C@H]3[C@@H]1O (stereo partly specified) [Cytochalasin D],scaled lipid accumulation score,library stock concentration: 9.9 mM,active: 0.918
Cc1onc(O)c1CC(N)C(=O)O (racemic),scaled lipid accumulation score,[1],inactive: ≤ 0
Cc1onc(O)c1CC(N)C(=O)O (racemic) [(RS)-AMPA hydrobromide],scaled lipid accumulation score,[1],inactive: 0.001
NC(=S)N/N=C/c1coc2ccccc2c1=O.[Cl][Cu][Cl],scaled lipid accumulation score,[1],inactive: 0.073
COc1cc(CNC(=O)CCCCCCC(C)C)c(I)cc1O,scaled lipid accumulation score,[2],inactive: ≤ 0
"CN1CCC2(C)c3cc(O)ccc3N(C)C12 (single isomer, unassigned; (-)) [(-)-Eseroline fumarate salt]",scaled lipid accumulation score,,inactive: 0.065
O=C(NCCN1CCC2(CC1)C(=O)NCN2c1ccccc1)c1ccc2ccccc2c1,scaled lipid accumulation score,[2],inactive: ≤ 0
CC(=O)[C@H]1CC[C@H]2[C@@H]3CC[C@H]4C[C@H](O)CC[C@]4(C)[C@H]3CC[C@]12C [5alpha-Pregnan-3alpha-ol-20-one],scaled lipid accumulation score,[1],inactive: ≤ 0
CC(C)(C)c1cc(C=C(C#N)C#N)cc(Br)c1O,scaled lipid accumulation score,[3],inactive: ≤ 0
same,scaled lipid accumulation score,[1],inactive: ≤ 0
CC(C)[C@]12O[C@H]1[C@@H]1O[C@]13[C@]1(O[C@H]1C[C@H]1C4=C(CC[C@@]13C)C(=O)OC4)[C@@H]2O,scaled lipid accumulation score,[1],inactive: ≤ 0
CC(C)[C@]12O[C@H]1[C@@H]1O[C@]13[C@]1(O[C@H]1C[C@H]1C4=C(CC[C@@]13C)C(=O)OC4)[C@@H]2O [Triptolide (PG490)],scaled lipid accumulation score,[3],inactive: ≤ 0
same,scaled lipid accumulation score,[1],inactive: 0.22
CCOC(=O)CC(SP(=S)(OC)OC)C(=O)OCC (stereo unspecified),scaled lipid accumulation score,[1],inactive: ≤ 0
NCC(CC(=O)O)c1ccc(Cl)cc1 (stereo unspecified) [Baclofen],scaled lipid accumulation score,library stock concentration: 9.4 mM,inactive: ≤ 0
same,scaled lipid accumulation score,[1],inactive: ≤ 0
NCC(CC(=O)O)c1ccc(Cl)cc1 (stereo unspecified),scaled lipid accumulation score,[1],inactive: 0.201
